Source: PMC12040169 (PLOS Biology, 2025)
The list shows a part of the results.

system: T1, C. trachomatis L2/434/Bu expressing GFP (CTL2-GFP); set-up: species or system HeLa; C. trachomatis total inclusion area by high-content imaging, normalised to DMSO; conditions: total inclusion area; 28.5 h, 10 µM; inhibitor
T1 construct: L2/434/Bu GFP intracellular growth in HeLa cells
Summary of the method: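 Imaging read-out: GFP inclusions and Hoechst nuclei captured by high-content imaging after fixation. Inclusion area/number = chlamydial growth; nuclei count = host cell viability. MIC calculated per earlier method.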

| Structure (SMILES) | % of control remaining |
| --- | --- |
| CC(=O)Nc1ccc(Nc2ncnc3c2cnn3-c2ccc(C)cc2C)cc1 [CBK265803] | 105.214 |
| Cn1cncc1CN1C2CCC1CC(O)(c1ccccc1F)C2 (stereo not shown) [CBK282649] | 108.437 |
| CC(C)CCCC(=O)n1ccn(-c2ccc(N(C)C)cc2)c1=O [CBK106603] | 86.732 |
| COc1cc(OC)c(NS(=O)(=O)c2ccc(C(=O)O)cc2)cc1Cl [CBK296620] | 98.8667 |
| O=C(OCCc1ccncc1)N1CCCC(F)(F)C1 [CBK200157] | 114.105 |
| Cn1cc(CCCNC(=O)c2cccc(CN3CCCCCC3)c2)cn1 [CBK306906] | 109.337 |
| O=C1CC(C(=O)O)SC(NNC(=O)c2ccccc2)=N1 (stereo not shown) [CBK267944] | 112.81 |
| CCN(CC)CCn1c(-c2ccccc2)c(OCCO)c2ccccc2c1=O [CBK010078] | 105.274 |
| O=c1[nH]c(=O)n(Cc2cccnc2)c2nc[nH]c12 [CBK291260] | 90.526 |
| CCc1nc2ccc(C(=O)NCCCN3CCCC3=O)cn2c1N(C)Cc1cccs1 [CBK145536] | 119.085 |
| CN1CCN(Cc2nc3c(c(=O)n(C)c(=O)n3C)n2Cc2c(F)cccc2Cl)CC1 [CBK269179] | 126.489 |
| CC(=O)N1CCC2(C/C=C/C[C@H]3CN(CC(N)=O)CC[C@H]3NC(=O)CNC2=O)CC1 [CBK292148] | 98.6508 |
| COc1ccc2[nH]cc(C3CCN(C(=O)c4cc(C#N)c[nH]4)CC3)c2c1 [CBK305479] | 23.8661 |
| O=C(Cc1ccsc1)N1CCCC1c1nc2ccccc2[nH]1 (stereo not shown) [CBK283740] | 83.1306 |
| CC(=O)Nc1ccc(N2CC34C=CC(O3)C(C(=O)O)C4C2=O)cc1 (stereo not shown) [CBK287020] | 101.774 |
| CN1CCN(c2cncc(-c3ccccc3CO)n2)CC1 [CBK065302] | 126.446 |
| COc1cccc2ncn(CCCn3cccn3)c(=O)c12 [CBK307094] | 91.1526 |
| COc1ccc(-n2c(S)nnc2-c2cc(C(C)(C)C)n[nH]2)cc1 [CBK269071] | 96.2107 |
| CC(C)(C)OC(=O)NCC1CCC(C(=O)O)CC1 (stereo not shown) [CBK278598] | 86.8051 |
| CCC(=O)N1CCC(c2cc(C(F)(F)F)n3nc(C)cc3n2)CC1 [CBK284367] | 60.6821 |
| CN(c1ccccc1)S(=O)(=O)c1ccc(C(=O)NCc2cccnc2)cc1 [CBK297522] | 87.0322 |

| Structure (SMILES) | % of control remaining |
| --- | --- |
| CC12CCC(=O)N1CCCN2Cc1cnn(-c2ccc(F)cc2)c1 (stereo not shown) [CBK281819] | 88.6699 |
| O=C(N[C@@H]1COCC[C@@H]1OCC1CC1)c1cccc2c1NCCC2 [CBK307227] | 81.8733 |
| OC1(c2cccnc2)CCCN(Cc2ccccc2F)CC1 (stereo not shown) [CBK283009] | 104.439 |
| CCCNC(=O)Cc1sccc1NS(=O)(=O)c1ccc(C)cc1 [CBK038118] | 85.72 |
| CC1(C(=O)O)CCC(C(=O)Nc2ccc(F)cc2)C1(C)C (stereo not shown) [CBK286953] | 97.8421 |
| O=C(NCc1ccccc1Cl)N(Cc1cccc(Cl)c1)CC1CCNCC1 [CBK049762] | 80.4119 |
| O=C(Nc1nc2c(s1)CCc1ccccc1-2)C1CC1 [CBK287330] | 111.944 |
| Cc1ccc(OCCCN2CCN(C)CC2)c(Cc2ccccc2)c1 [CBK269650C] | 77.1414 |
| CSc1nc2sc3c(c2c(=O)n1-c1ccccc1C)CC(C)(C)OC3 [CBK091875] | 124.453 |
| COc1ccc(C2(NC(=O)c3cnn(C)c3C)CCCCC2)cc1 [CBK283731] | 74.0228 |
| CCn1cc(CN(Cc2ccccc2)CC2CCCO2)c(C)n1 (stereo not shown) [CBK283265] | 116.369 |
| Cc1c(C(=O)NC2CCN(c3ncccc3C#N)CC2)ccn1C [CBK307681] | 32.4008 |
| CCC(CO)Nc1cncc(-c2cc(C(C)C)ccc2OC)n1 (stereo not shown) [CBK065743] | 59.3189 |
| Cc1cc2n(n1)[C@@H](C(F)F)C[C@@H](C1CCN(C(=O)C(C)C)CC1)N2 [CBK284725] | 108.577 |
| C[C@H](NC(=O)N1CCN(C(=O)c2c[nH]c3ccccc23)CC1)C(=O)O [CBK286581] | 99.0085 |
| O=S(=O)(Nc1nnn[nH]1)c1ccc(-c2cnco2)s1 [CBK062394] | 78.395 |
| COCCOC(=O)N1CCC(N(C)Cc2ccc(-c3ccc(S(C)(=O)=O)cc3)nc2)CC1 [CBK165258T] | 50.0101 |
| O=C(c1ccco1)N1CCC(c2nnc3n2CCCCC3)CC1 [CBK284607] | 103.312 |
| O=C(CCCN1CCN(C(=O)NC2CCC(O)CC2)CC1)c1ccc(F)cc1 (stereo not shown) [CBK025156C] | 105.219 |
| CCOC(=O)c1cnn(C2CCCN(C(=O)c3cscc3C)C2)c1 (stereo not shown) [CBK305385] | 76.2346 |
| COc1cccc(-c2n[nH]c3c2C(c2cccnc2)NC3=O)c1 (stereo not shown) [CBK288238] | 90.5435 |

| Structure (SMILES) | % of control remaining |
| --- | --- |
| CCN(Cc1ccccc1)C(=O)Nc1ccccc1 [CBK012816] | 95.571 |
| N#Cc1ccc(CNC(=O)c2ccc3[nH]ccc3c2)cc1 [CBK149078] | 97.4955 |
| CC(C)(C)OC(=O)N1CCC(c2nc3ccc(F)cc3cc2N)CC1 [CBK284658] | 34.4276 |
| COC(=O)c1sccc1NS(=O)(=O)c1ccc(C(F)(F)F)cc1 [CBK200041] | 82.5343 |
| Cc1[nH]nc(Nc2cccc(C(=O)O)c2)c1[N+](=O)[O-] [CBK262725] | 114.174 |
| CCOC(=O)c1c(C#N)c(SCc2ccc(Cl)cc2)nc2c1CN(CC)CC2 [CBK021337] | 92.5836 |
| N#CCCCN1CCC(Oc2nccnc2OCc2cccc(Cl)c2)CC1 [CBK153642] | 103.147 |
| O=C(O)C1CSC(c2cccnc2)N1 (stereo not shown) [CBK260910] | 110.331 |
| CC(C)Nc1cc(OCc2cccnc2)ncn1 [CBK115883] | 103.257 |
| CC(=O)Nc1nc(NC(C)=O)n2c(-c3ccccc3)nnc2n1 [CBK026649] | 81.5044 |
| CC(=O)N(C)[C@H]1CC[C@]2(CC1)CNC(=O)c1ccccc1O2 [CBK281682] | 93.8172 |
| CC(=O)c1ccc(NC(=O)NC[C@H]2C[C@@H]3CC[N@]2C[C@@H]3CN2CCN(C)CC2)cc1 [CBK288768] | 72.4405 |
| COC(=O)c1ccccc1NC(=O)NCc1cc(C)n(C)n1 [CBK266887C] | 81.6156 |
| CC(O)CNc1nccnc1-c1ccccc1 (stereo not shown) [CBK089257] | 75.0363 |
| C/C(=N\NC(=O)c1ccccc1O)c1ccc(NC(=O)c2ccc(C)cc2)cc1 [CBK261251] | 106.846 |
| Cn1ccnc1C1(O)CC2CCC(C1)N2C(=O)c1cccc(Cl)c1 (stereo not shown) [CBK284091] | 74.837 |
| CC(=O)N1CCCc2cc(C(O)CN3CCCC(C)(C)C3)ccc21 (stereo not shown) [CBK282143] | 90.2453 |
| C=CCNC(CC(=O)Nc1ccc(C)c(Cl)c1)C(=O)O (stereo not shown) [CBK266892] | 92.9906 |
| CC(C)[C@@]1(C)SC(N[C@H]2C[C@H]3C[C@@H]2C[C@@H]3O)=NC1=O [CBK138400] | 95.3744 |
| CC1(c2ccccc2)CC(=O)N(CCC(=O)O)C1=O (stereo not shown) [CBK287091] | 96.63 |
| O=C1CCCN1CCCNc1nccnc1-c1cccnc1 [CBK089246] | 101.022 |

| Structure (SMILES) | % of control remaining |
| --- | --- |
| CC(Cn1cccn1)NCc1cn(C)c2cc(F)ccc12 (stereo not shown) [CBK282220] | 104.382 |
| Cc1cccc(C)c1N1CCN(CC(O)COc2ccc3c(C)cc(=O)oc3c2)CC1 (stereo not shown) [CBK270084] | 94.9669 |
| COc1cc(OC)c(NC(=O)CSc2ccccn2)cc1Cl [CBK267303] | 76.1429 |
| Cc1c(C)n(Cc2ccco2)c2ncnc(NC(C)C(=O)O)c12 (stereo not shown) [CBK307561] | 78.5275 |
| COc1ccc(Nc2cc(Cl)ccc2C(=O)N2CCN(c3ncccn3)CC2)cn1 [CBK107334] | 94.1333 |
| CCCC/C=C/c1nccnc1N(C)Cc1ccccc1 [CBK037412] | 115.682 |
| CSc1nc(C(=O)NC2CCCN(c3ncccn3)C2)cs1 (stereo not shown) [CBK307198] | 75.0272 |
| CC(C)N1CCc2c(sc3nc(SCc4ccc(Cl)cc4)n(Cc4ccccc4)c(=O)c23)C1 [CBK263745] | 75.1311 |
| Cc1ccc2c(CC(=O)N3CCC(C(=O)O)CC3)coc2c1 [CBK286711] | 92.6645 |
| Cc1nnc(SCc2cc(=O)[nH]c(N3CCN(Cc4ccccc4)CC3)n2)s1 [CBK268837] | 111.486 |
| Fc1ccc(-c2ccc(CNCc3ccncc3)o2)cc1 [CBK270158C] | 99.2189 |
| COC(=O)C(Nc1cccc(Cl)c1)(c1cc(OC)c(O)c(OC)c1)C(F)(F)F (stereo not shown) [CBK009591] | 96.6364 |
| N#CCCN(Cc1cccnc1)C(=O)Cc1noc2ccccc12 [CBK304001] | 44.1842 |
| O=C(Nc1ccc2ncccc2c1)c1ccoc1 [CBK159823] | 100.57 |
| Cn1cc([C@H]2C[C@@H](O)[C@@H](CO)O2)c(=O)n(C)c1=O [CBK201272] | 122.998 |
| FC(F)(F)c1ccc(CN2CCCC3(C2)NCCc2c3[nH]c3ccccc23)cc1 (stereo not shown) [CBK040095] | 82.0432 |
| CCOC(=O)c1c(C)n(-c2ccccc2)c2ccc(O)c(CN(C)C)c12 [CBK261593C] | 58.1395 |
| COc1ccc(C(C)C)cc1-c1cc2ncccc2nc1N [CBK081202] | 100.713 |
| O=C(c1ccc(CO)o1)N1CCn2cc(C(F)(F)F)nc2C1 [CBK283914] | 86.8015 |
